Source: the RNAGym collection of RNA variant scans (doi:10.7554/elife.90254)
The source gives no read counts; variants with many changes may rest on few reads.

B1: LINE1-mini (parent)
chain: GGCAGAGCUCAACACAGCGUGGCAAAGUGGCUGUGGCUAGACUGCC

Variants of: B1
Assay: self-cleavage, relative activity (ratio to wild type); higher = more cleavage; in vitro, sequencing; the parent is a self-cleaving ribozyme

Q: With GGCAGAGCUCAGCUCAGCGUGGCAAGGUGGCCGUGGCUAGACUGCC [A12G A14U A26G U32C] as the variant, how does the self-cleavage read?
A: 0

Q: With GGCAGAGCUCAGCACCGCGUUGCAAAUUGGCGGUGUCUAAACUGCG [A12G A16C G21U G27U U32G G36U G40A C46G] as the variant, how does the self-cleavage read?
A: 0.01

Q: For GGCAGAGCUCUACACAGCGUGGCAAAUUGGCUGUGGCUAGACUACC [A11U G27U G44A], which self-cleavage is on record?
A: 0.04

Q: With GGCAGAGCUCUACACAGCGUGGCAAACUGGGUGAGGCUAGACUGCC [A11U G27C C31G U34A] as the variant, how does the self-cleavage read?
A: 0.03

Q: With GGCAGAGCUCACCACAGCGCCGCAAAGUUGCUGUGGCUAGACUGCC [A12C U20C G21C G29U] as the variant, how does the self-cleavage read?
A: 0

Q: With GGCAGAGCUCACCACAGCGUGGGAAAGUGGCUGUGGCUAGACUGCU [A12C C23G C46U] as the variant, how does the self-cleavage read?
A: 0.01

Q: Which self-cleavage does the source give for GGCAGAGCUCACCAGAGAGCCCCAAAGUGGCUGUGGCUUGACUGCC [A12C C15G C18A U20C G21C G22C A39U] here?
A: 0.01

Q: With GGCAGAGCUCACUACAGCGAGGCAAAGUGGCUGUGGCUAGACUGCC [A12C C13U U20A] as the variant, how does the self-cleavage read?
A: 0.05

Q: For GGCAGAGCUCUACACAGCGUGGCAAAGUGGCAGUGGCUAGAAUUCC [A11U U32A C42A G44U], which self-cleavage is on record?
A: 0.01

Q: For GGCAGAGCUCACCACAGCGUGGCAAAGAGGCCGUGGCUAGGCUGCC [A12C U28A U32C A41G], which self-cleavage is on record?
A: 0.02

Q: Which self-cleavage does the source give for GGCAGAGCUCAGCUCAGCGUGGCAAAGUCGCUGUGGCUAGACUGUC [A12G A14U G29C C45U] here?
A: 0.01

Q: Which self-cleavage does the source give for GGCAGAGCUCUACACAGCGUGCCAAAGUGGCUGUUGCUAGACUGCG [A11U G22C G35U C46G] here?
A: 0.01

Q: Which self-cleavage does the source give for GGCAGAGCUCACCACGGCGUUGCAAAGGGGCUGUGGCUAGACUGCC [A12C A16G G21U U28G] here?
A: 0.01

Q: With GGCAGAGCUCACCACAUCGUGGCAAAGCUGCUGCGGCGAGACCUCC [A12C G17U U28C G29U U34C U38G U43C G44U] as the variant, how does the self-cleavage read?
A: 0

Q: For GGCAGAGCUCACCACAGCGUUGCAACGUGGCCGUGGCUAGACUGCA [A12C G21U A26C U32C C46A], which self-cleavage is on record?
A: 0

Q: For GGCAGAGCUCACCACAGCUUGGCAAAGUGGCUGUGGCGAGCCUGCC [A12C G19U U38G A41C], which self-cleavage is on record?
A: 0

Q: For GGCAGAGCUCACCACAGCGUGGCAAAGUGGCUGUGGCUAGAUUGUC [A12C C42U C45U], which self-cleavage is on record?
A: 0

Q: For GGCAGAGCUCACCACAGCGUGUCAAAGUGGCUGUUGCAAGACUGCC [A12C G22U G35U U38A], which self-cleavage is on record?
A: 0.02

Q: Which self-cleavage does the source give for GGCAGAGCUCACAACAGCGUGGCAAAGUGGCUGUGGCUAGACUGUC [A12C C13A C45U] here?
A: 0.09

Q: With GGCAGAGCUCACCACAGCCUGGCAAAGUAGCUGUGGCUAGAUUGCC [A12C G19C G29A C42U] as the variant, how does the self-cleavage read?
A: 0

Q: Which self-cleavage does the source give for GGCAGAGCUCUACACAGCGUGGCAAAAUGGCUGUGGCUAAACUGCC [A11U G27A G40A] here?
A: 0.01

Q: Which self-cleavage does the source give for GGCAGAGCUCUACACAGCGAGGCAUAGUGGCUGUGUCUAGACUCCC [A11U U20A A25U G36U G44C] here?
A: 0.01

Q: For GGCAGAGCUCUACACAGCGUGGCAAAGUGGCUGUGGCUAGACUCCU [A11U G44C C46U], which self-cleavage is on record?
A: 0.07

Q: With GGCAGAGCUCAGCACAGCGUGGCGAAGUGGUUGUGGCUAGACUGCC [A12G A24G C31U] as the variant, how does the self-cleavage read?
A: 0.1

Q: For GGCAGAGCUCACCAGAGCGUGGCCAAGUGGCUGUGGCUAGACUGCG [A12C C15G A24C C46G], which self-cleavage is on record?
A: 0.02

Q: Which self-cleavage does the source give for GGCAGAGCUCUACACAGCGUGGCAAAGUCGCUGUGGCUAGAAUGCC [A11U G29C C42A] here?
A: 0.01

Q: Which self-cleavage does the source give for GGCAGAGCUCACCACAGCGUGGGUAAGUGGCUGUGGCUAGACUGCC [A12C C23G A24U] here?
A: 0.01

Q: For GGCAGAGCUCACCACAGCGUGGCAAAUUGGCUGUGGCUUGACUGCC [A12C G27U A39U], which self-cleavage is on record?
A: 0.03

Q: For GGCAGAGCUCUACACAGCGUGGCAAAGAGGUUGUGGCUAGACUGCC [A11U U28A C31U], which self-cleavage is on record?
A: 0.05

Q: For GGCAGAGCUCACCACUGCGCGGCAAAGUGGCUAUGGCUAGACUGCC [A12C A16U U20C G33A], which self-cleavage is on record?
A: 0.01

Q: With GGCAGAGCUCACUACAGCGUGGCAAAGUGGCUGUGGCUAGACUGCA [A12C C13U C46A] as the variant, how does the self-cleavage read?
A: 0

Q: Which self-cleavage does the source give for GGCAGAGCUCACCACCGCGUGGUAAAGUGGCUGUGGCUAGACUGCC [A12C A16C C23U] here?
A: 0.07

Q: Which self-cleavage does the source give for GGCAGAGCUCUACACAGCGCGGCAAAGUGGCUGUGGCUGGACUGCU [A11U U20C A39G C46U] here?
A: 0.04

Q: For GGCAGAGCUCACCCCAGCGUGGCAAAUUGGCUGUGGCUAGACAGCC [A12C A14C G27U U43A], which self-cleavage is on record?
A: 0.01

Q: Which self-cleavage does the source give for GGCAGAGCUCACCACAGCGCGGCAAAGUCGCUGUGGCUAGACUGUC [A12C U20C G29C C45U] here?
A: 0.02

Q: For GGCAGAGCUCUACACAGCGUGGCAAAGUGGCUGUGGCUAAUCUGCC [A11U G40A A41U], which self-cleavage is on record?
A: 0.02

Q: For GGCAGAGCUCUACACAGCGUGGCAAAGUGGCUCUGGCUAGGCUGUC [A11U G33C A41G C45U], which self-cleavage is on record?
A: 0.03

Q: For GGCAGAGCUCACCACAGCGUGGCAAAAUGGCUGUGGCGAGACUGCC [A12C G27A U38G], which self-cleavage is on record?
A: 0.01

Q: For GGCAGAGCUCUACACAGCGUGGCAAAGUCGCUGUGGCUAGACUGCA [A11U G29C C46A], which self-cleavage is on record?
A: 0.05

Q: Which self-cleavage does the source give for GGCAGAGCUCACCACAGUGUCGCAAAGUGGUUGUGGCUAGACUGCC [A12C C18U G21C C31U] here?
A: 0.01

Q: For GGCAGAGCUCACCACAGCGUGGCACAGUGGCUGAGUCUAGACUGCG [A12C A25C U34A G36U C46G], which self-cleavage is on record?
A: 0.03

Q: For GGCAGAGCUCACAACAGCGUGGCAAAGUGGCUGUGGCUAUACUGCC [A12C C13A G40U], which self-cleavage is on record?
A: 0.13

Q: With GGCAGAGCUCUACACAGCGUGGCAAAGUGGCUGUUGCUAGACUGCU [A11U G35U C46U] as the variant, how does the self-cleavage read?
A: 0.03

Q: With GGCAGAGCUCACCACCGCGUGGCAUAGUGGCUGUGGCUAGGCUGCC [A12C A16C A25U A41G] as the variant, how does the self-cleavage read?
A: 0.02

Q: Which self-cleavage does the source give for GGCAGAGCUCACCACAGCGUGGCAAAGGGGAUGUGGCUAGACUGCC [A12C U28G C31A] here?
A: 0.02

Q: Which self-cleavage does the source give for GGCAGAGCUCACCAACGCGGGGCAAAGUGGCUUUGGCUAGAUUGCC [A12C C15A A16C U20G G33U C42U] here?
A: 0.01

Q: Which self-cleavage does the source give for GGCAGAGCUCACCUCAGCGUGGUAAAGUGGCUGUGGCCAGACUGCC [A12C A14U C23U U38C] here?
A: 0.02

Q: With GGCAGAGCUCACCACCGCGUGGCAAAGUGGCUGUUGCUAGACUGCC [A12C A16C G35U] as the variant, how does the self-cleavage read?
A: 0.01

Q: For GGCAGAGCUCUACACAGCGUGGCAAAAUUGCUGUUGCUAGACUGCC [A11U G27A G29U G35U], which self-cleavage is on record?
A: 0.01

Q: For GGCAGAGCUCACCACAGCGUGGCAAAGUGGCUGUGGCUAGACGUCC [A12C U43G G44U], which self-cleavage is on record?
A: 0.01

Q: Which self-cleavage does the source give for GGCAGAGCUCAGCCGAGCGUUGCAAAGUGGCUGUGGCUAGACUGCC [A12G A14C C15G G21U] here?
A: 0.02

Q: Which self-cleavage does the source give for GGCAGAGCUCACCACAGCGUGGCAAAGUGGGUGUGGCUACACUGCC [A12C C31G G40C] here?
A: 0.02

Q: Which self-cleavage does the source give for GGCAGAGCUCACCACAGCGUGGCAAAGUGGUUGUGGCUUGACUGCC [A12C C31U A39U] here?
A: 0.02

Q: With GGCAGAGCUCACCACAGCGUGGCAAAGUGGUUGUGGCUAGACUGCA [A12C C31U C46A] as the variant, how does the self-cleavage read?
A: 0.04

Q: With GGCAGAGCUCACCACAGCGUGGUAAACUGGCAGUGGCUAUACUGCC [A12C C23U G27C U32A G40U] as the variant, how does the self-cleavage read?
A: 0

Q: For GGCAGAGCUCACCACAGCGUGGCGAAGUGGCUGUGGGUAGACUGCC [A12C A24G C37G], which self-cleavage is on record?
A: 0.03
